Reference: publication PMC4336329 (PLoS ONE, 2015)
The whole screen tested about 310,000 compounds, of which about 2,200 (0.71%) showed an effect of 50% or more. Effects have a minus sign here. The list shows a part of the results.

Target: human ether-à-go-go-related gene (hERG) potassium channel (human, UniProt Q12809)
Experiment: primary screen, population patch clamp on CHO cells stably expressing hERG

human ether-à-go-go-related gene (hERG) potassium channel, sequence (Q12809 whole entry, looked up): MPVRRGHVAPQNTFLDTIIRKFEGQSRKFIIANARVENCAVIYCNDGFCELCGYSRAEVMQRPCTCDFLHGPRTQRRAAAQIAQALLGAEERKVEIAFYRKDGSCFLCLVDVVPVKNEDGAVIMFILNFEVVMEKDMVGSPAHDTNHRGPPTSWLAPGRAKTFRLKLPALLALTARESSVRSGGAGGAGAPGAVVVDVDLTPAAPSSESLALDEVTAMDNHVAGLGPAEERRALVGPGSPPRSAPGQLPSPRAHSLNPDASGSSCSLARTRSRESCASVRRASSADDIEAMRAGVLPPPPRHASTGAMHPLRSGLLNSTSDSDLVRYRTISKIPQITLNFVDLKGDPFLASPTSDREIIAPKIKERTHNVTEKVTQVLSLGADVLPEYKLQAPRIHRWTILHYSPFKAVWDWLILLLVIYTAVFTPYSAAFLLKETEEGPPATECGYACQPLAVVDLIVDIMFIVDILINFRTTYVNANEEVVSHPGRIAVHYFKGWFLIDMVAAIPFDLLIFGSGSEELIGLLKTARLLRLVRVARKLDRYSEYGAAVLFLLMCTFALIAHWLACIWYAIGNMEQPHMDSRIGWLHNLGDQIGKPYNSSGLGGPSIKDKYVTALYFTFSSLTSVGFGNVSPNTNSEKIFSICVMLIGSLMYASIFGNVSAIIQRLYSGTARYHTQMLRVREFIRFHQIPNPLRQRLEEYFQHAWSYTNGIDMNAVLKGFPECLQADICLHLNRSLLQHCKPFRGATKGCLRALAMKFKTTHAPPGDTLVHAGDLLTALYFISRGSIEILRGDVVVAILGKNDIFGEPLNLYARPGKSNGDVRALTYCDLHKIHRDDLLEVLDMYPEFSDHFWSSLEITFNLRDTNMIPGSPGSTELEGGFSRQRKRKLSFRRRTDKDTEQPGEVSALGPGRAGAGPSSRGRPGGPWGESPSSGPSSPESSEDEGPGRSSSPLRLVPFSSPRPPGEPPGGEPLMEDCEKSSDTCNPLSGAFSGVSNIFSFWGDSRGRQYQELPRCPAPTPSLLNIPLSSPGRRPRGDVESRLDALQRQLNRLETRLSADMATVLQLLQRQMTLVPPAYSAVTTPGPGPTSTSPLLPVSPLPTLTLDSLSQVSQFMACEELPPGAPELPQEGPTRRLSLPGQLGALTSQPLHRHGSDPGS

Compound	hERG current change (%, negative = inhibition) at 1uM [%]
Cc1ccccc1OCC(=O)Nc1ccccc1N1CCOCC1	4.24
Cc1cc(C)cc(OCC(=O)Nc2cccc(-c3nc4ncccc4o3)c2)c1	11.9
COc1ccc(C(=O)NN/C(C)=C/C(=O)C(F)(F)C(F)(F)C(F)(F)F)cc1	5.91
CC(C)(C)c1ccc(C(=O)c2c[nH]c(C(=O)NCCCn3ccnc3)c2)cc1	6.02
N=c1c(C(=O)NCc2ccc(F)cc2)cc2c(=O)n3ccccc3nc2n1CCCN1CCOCC1	-91.8
O=C(COc1cccc2ccccc12)Nc1cc(S(=O)(=O)N2CCOCC2)ccc1N1CCOCC1	-2.09
Cc1cc(Br)ccc1SCC(=O)OCC(=O)NCc1ccco1	3.07
Cc1ccc(-n2ncc(C(=O)O)c2C2CCN(C(=O)OC(C)(C)C)CC2)cc1	1.61
COCC(=O)Nc1nnc(C2CCCCC2)s1	-2.67
O=C(CSc1nc2ccccc2c(=O)n1CC1CCCO1)NCCc1ccccc1 (centres unmarked)	19.6
O=C(NC1CC1)c1ccc2c(c1)C1C3CCC(C3)C1C(c1ccccc1)N2 (centres unmarked)	10.2
CCC(CC)C(=O)Nc1nnc(S(=O)(=O)Nc2ccccc2C)s1	14.1
COCC(C)N1CCC(Oc2ccc(C(=O)N3CCCC3)cc2)CC1 (centres unmarked)	10.5
O=C(Cn1c(=O)n(CC(=O)N2CCCCC2)c(=O)c2sccc21)NCc1ccccc1	14.8
Cc1cc(N=Nc2ccc3ccccc3c2)ccc1O	9.74
Cc1ccc2c(ccn3cc4c(c(=O)n(C)c(=O)n4C)c23)c1	9.48
O=C(CN1C(=O)NC2(CCCCCC2)C1=O)N1CCN(S(=O)(=O)c2ccccc2)CC1	4.28
CCn1c(O)c(N=NC(=O)CNC(=O)c2ccccc2F)c2ccccc21	13.7
COc1ccc(CNC(=O)Cn2c(=O)n(CCC(=O)N3CCCCC3)c(=O)c3sccc32)cc1	0.388
CN(C)Cc1ccccc1Cc1ccccc1.O=C(O)/C=C\C(=O)O	6.94
O=C(Nc1cc2c(cc1Br)OCCCO2)c1ccccc1	-4.84
CCOc1ccc(C(=O)Nc2ccc(C(=O)N3CCOCC3)cc2)c(OCC)c1	7.69

Compound	hERG current change (%, negative = inhibition) at 1uM [%]
Cc1ccc(C)c(NC(=S)NNC(=O)c2ccc(Br)o2)c1	1.32
O=C(CSc1nnc(-c2ccccc2)n1-c1ccccc1)NCc1ccco1	7.59
COC(=O)C1C(=O)CC(C)(O)C(C(=O)OC)C1c1ccccc1F (centres unmarked)	13.7
CN(CC(=O)Nc1cccc(F)c1)C(=O)c1ccc(S(=O)(=O)N2CCCC2)cc1	7.96
O=C(Nc1ccccc1-c1nc2ccccc2s1)c1ccc(Br)o1	15.3
CCOc1ccccc1-n1c(COc2ccc(C)cc2)nnc1SCC(N)=O	5.39
O=C(/C=C/Nc1ccc(F)cc1F)c1cccs1	18.4
Cc1cc(C)c(NC2=NS(=O)(=O)c3ccccc32)c(C)c1	-16.6
Cn1c(=O)[nH]c(=O)c2c1nc(N1CCCC1)n2CCCSc1nc2ccccc2o1	10.9
CCN1CCCC1CNC(=O)c1cc2c(-c3ccc(Cl)cc3)nn(C)c2s1 (centres unmarked)	-21
Cc1ccnc(NC(=O)c2ccc(S(=O)(=O)c3ccccc3)cc2)c1	9.76
COC(=O)C1=C(C)NC(=O)NC1c1cc(Cl)ccc1OC (centres unmarked)	10.7
Cc1nnc(SCC(=O)N2CCCCC2)s1	5.2
COc1cc(C=O)ccc1Oc1cnccn1	12.2
O=C(CCN1C(=O)C2C3CC(C(Br)C3Br)C2C1=O)OCC(=O)c1cccc([N+](=O)[O-])c1 (centres unmarked)	25.7
CCOC(=O)[C@@H]1[C@H]2COc3ccccc3[C@@H]2N2C(=O)N(c3ccc(Cl)cc3)C(=O)[C@]12C	12.9
O=c1c2ccccc2nc(-c2cccs2)n1-c1cnccn1	8.53
O=C(NC1CCCC1)C(c1ccccn1)N(C(=O)c1csnn1)C1CCCCC1 (centres unmarked)	0.749
CC(C)(O)C(=O)N=Nc1c(O)[nH]c2ccccc12	19
COc1ccccc1N1CCN(C(=O)CCCCn2c(=O)[nH]c3ccsc3c2=O)CC1	-1.62
O=C(O/N=C\c1ccc(N2CCOCC2)c([N+](=O)[O-])c1)c1ccc(F)cc1	-2.21
O=C(Nc1ccccc1N1CCOCC1)c1cccc(Oc2ccccc2)c1	7.46

Compound	hERG current change (%, negative = inhibition) at 1uM [%]
CCN(C(=O)CSc1nnc(COc2cccc(C)c2)o1)c1nc(C)cs1	11.7
Cc1cc(-n2c(C)cc(C(=O)CSc3[nH]c(=O)cc(C(F)(F)F)c3C#N)c2C)no1	8.5
CCOC(=O)NN=C1c2ccccc2-c2ccccc21	11.8
Cc1ccccc1Nc1nc(N)nc(CCl)n1	17.9
Oc1ccc(/C=N/Nc2ccc3ccccc3c2)c(O)c1	4.75
C=CCNCCOc1ccc(C(C)(C)c2ccccc2)cc1.O=C(O)C(=O)O	5.47
COC(=O)c1c(NS(=O)(=O)Cc2ccccc2)sc2c1CCCC2	6.69
Cc1nonc1C1CCCN1C(=O)c1cc(COc2ccc(F)cc2Cl)on1 (centres unmarked)	8.74
Cc1c(Br)c(=O)[nH]c(=O)n1COCc1ccccc1	0.16
CC(C)NC(=S)N1CCCN(c2ncccc2[N+](=O)[O-])CC1	17.3
Cc1ccc(C(=O)N[C@H](C(=O)Nc2ccc(F)cc2)C(C)C)cc1	17.2
O=C(Nc1ccc2nc3n(c(=O)c2c1)CCCCC3)c1ccccc1[N+](=O)[O-]	14.6
COc1c(O)ccc2c1-c1c3c(cc4c1C(C2)N(C)CC4)OCO3 (centres unmarked)	-0.891
CCN(CC)CCCNC(=O)/C=C/C(=O)O	4.16
CC1=CC(=O)OC2CC3OC4C[C@@H](C)C5OC6CC7O[C@]8(C)C/C=C\C9OC%10CC%11OC(CC(C)CO)CC(O)[C@]%11(C)OC%10CC9OC8C[C@]7(C)O[C@]6(C)CCC5OC4C[C@]3(C)OC12 (some centres unmarked)	16.6
COc1ccccc1N(C)S(=O)(=O)c1ccc(C(=O)Nc2ccc3nc(C)sc3c2)cc1	14.4
COc1ccc(C(C#N)N2CCCCCC2)cc1OC (centres unmarked)	9.04
Cc1ccc(C(=O)N2CCN(c3ncc(C(F)(F)F)cc3Cl)CC2)s1	-10.9
Cc1ccc(C(=O)N2CC(C)SC2=Nc2cccc(S(=O)(=O)N(C)C)c2)cc1 (centres unmarked)	8.74
O=C1OC(NC(=O)c2ccccc2)C(n2cc(CO)nn2)=C1Cl (centres unmarked)	-3.22
C/C(=N\NS(=O)(=O)c1ccc(C)c([N+](=O)[O-])c1)c1ccc2c(c1)OCO2	12.8
Cc1ccc(Oc2ccc(Cl)cc2NC(=O)c2cnccn2)cc1	4.49

Compound	hERG current change (%, negative = inhibition) at 1uM [%]
CC(=O)N1CCCc2cc(S(=O)(=O)N3CCCC(C(=O)NCc4ccccc4Cl)C3)ccc21 (centres unmarked)	11.7
CCOc1ccccc1C(=O)OCC(=O)NCC1CCCO1 (centres unmarked)	13.1
COc1ccccc1/C=C(\NC(=O)c1cccc(C)c1)C(=O)Nc1ccccn1	11.1
COCCCN(C(=O)Nc1ccc(C)c(C)c1)C(C)c1ccccn1 (centres unmarked)	13.4
Cc1ccc(NC(=O)CSCc2ccc(F)cc2)cc1	5.43
Cc1noc(/C=C/N(C)C)c1S(=O)(=O)N1CCCC(C(=O)N2CCCCC2)C1 (centres unmarked)	13.5
COc1cccc(N2CCN(c3ccc4nnc(CCC(=O)Nc5ccc(C)cn5)n4n3)CC2)c1	-23.1
N#CC1(NC(=O)COc2ccc(S(=O)(=O)N3CCCC3)cc2[N+](=O)[O-])CCCCC1	2.94
CC(C)CNC(=O)C(=O)NCC1OCCN1S(=O)(=O)c1cccs1 (centres unmarked)	10.1
Cc1c(C(=O)/C=C/N(C)C)nnn1-c1ccc(Cl)cc1C#N	15.6
O=[N+]([O-])c1ccc(C(O)CN2CCN(C/C=C/c3ccccc3)CC2)cc1 (centres unmarked)	-85.5
COc1ccc(CNC(=S)Nc2ccc3nc(N4CCN(C)CC4)cc(C)c3c2)cc1	-4.78
CN(C)CCC=C1c2ccccc2C=Cc2ccccc21.Cl	2.92
COc1ccc(Cl)cc1N(CC(=O)NCCSCc1ccccc1)S(C)(=O)=O	4.46
Cc1ccc(OCCn2c(C)c(/C=N/n3cnnc3)c3ccccc32)cc1	9.47
Cc1oc(-c2ccc(Cl)cc2)cc1C(=O)/C(C#N)=C/Nc1ccccc1	11.8
O=C(NCc1ccc(F)cc1)C1CC(=O)N(C2CCCC2)C1 (centres unmarked)	14.7
Cc1ccccc1Cn1c(C)cc(C)c(C#N)c1=O	9.17
Cc1nnc(SC(C)C(=O)NC2CCCCC2C)s1 (centres unmarked)	9.42
C/C(=C\c1ccccc1)C(=O)N1CCN(Cc2ccc3c(c2)OCO3)CC1	-3.77
